Measurements from publication PMC12820563, “FoxP3 forms a head-to-head dimer in vivo and stabilizes its multimerization on adjacent microsatellites”.
This is one part of the list.

Molecular target: T1, MBP-FoxP1dN (Mus musculus, UniProt P58462 326-579)
T1 sequence: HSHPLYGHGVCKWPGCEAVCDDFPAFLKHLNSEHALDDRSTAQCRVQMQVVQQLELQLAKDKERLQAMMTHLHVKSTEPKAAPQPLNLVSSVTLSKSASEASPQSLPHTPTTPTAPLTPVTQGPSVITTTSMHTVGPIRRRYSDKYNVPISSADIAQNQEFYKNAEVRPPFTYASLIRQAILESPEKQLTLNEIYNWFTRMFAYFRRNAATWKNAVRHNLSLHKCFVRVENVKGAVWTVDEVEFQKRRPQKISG
Test: PD-seq (MBP pull-down with sequencing); 20 mM Tris-HCl pH 7.5, 100 mM NaCl, 1.5 mM MgCl2, 0.4 uM protein, 0.1 uM dsDNA library, 30 min, room temperature, amylose pull-down; high values mean tight binding
Settings: protein: recombinant; tags: His6-MBP; chain copies: 2; dsDNA, one strand shown
Outline: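 A fragment of mouse FoxP3 or FoxP1 without its N-terminus, carrying a His6-MBP tag and produced in E. coli, was combined at 0.4 µM with a 0.1 µM degenerate double-stranded DNA library filled in with Klenow. The mixture sat for 30 min at room temperature in Tris pH 7.5 buffer containing NaCl and MgCl2. Protein–DNA complexes were captured on amylose resin, washed three times, and the DNA was freed with proteinase K, barcoded by PCR and sequenced on Illumina. Binding is expressed as reads-per-million enrichment of pull-down over input, with replicates pooled.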

| Sequence | binding signal |
| --- | --- |
| GATGATTGTTCTCCCAGCTGATGAATTCTGTCGCTCGAGTAAACAAATTTTCCTAATCTTTCTGTTCAAGCGCCATCTAC | 0.831 RPM ratio (pull-down/input) |
| GATGATTGTTCTCCCAGCTGATGAATTTGTTTTCTCGAGTAAACAAATTTTCCTAATCTTTCTGTTCAAGCGCCATCTAC | 2.32 RPM ratio (pull-down/input) |
| GATGATTGTTCTCCCAGCTGATGAATTGCAGTGGTCGAGTAAACAAATTTTCCTAATCTTTCTGTTCAAGCGCCATCTAC | 0.983 RPM ratio (pull-down/input) |
| GATGATTGTTCTCCCAGCTGATGAATTTTGCTTTTCGAGTAAACAAATTTTCCTAATCTTTCTGTTCAAGCGCCATCTAC | 1.49 RPM ratio (pull-down/input) |
| GATGATTGTTCTCCCAGCTGATGAATTCGACGAATCGAGTAAACAAATTTTCCTAATCTTTCTGTTCAAGCGCCATCTAC | 0.971 RPM ratio (pull-down/input) |
| GATGATTGTTCTCCCAGCTGATGAATTCACTCTCTCGAGTAAACAAATTTTCCTAATCTTTCTGTTCAAGCGCCATCTAC | 0.834 RPM ratio (pull-down/input) |
| GATGATTGTTCTCCCAGCTGATGAATTCGTCACGTCGAGTAAACAAATTTTCCTAATCTTTCTGTTCAAGCGCCATCTAC | 0.909 RPM ratio (pull-down/input) |
| GATGATTGTTCTCCCAGCTGATGAATTGTGGCCCTCGAGTAAACAAATTTTCCTAATCTTTCTGTTCAAGCGCCATCTAC | 0.946 RPM ratio (pull-down/input) |
| GATGATTGTTCTCCCAGCTGATGAATTGAGTCGCTCGAGTAAACAAATTTTCCTAATCTTTCTGTTCAAGCGCCATCTAC | 0.82 RPM ratio (pull-down/input) |
| GATGATTGTTCTCCCAGCTGATGAATTATAGGAATCGAGTAAACAAATTTTCCTAATCTTTCTGTTCAAGCGCCATCTAC | 1.02 RPM ratio (pull-down/input) |
| GATGATTGTTCTCCCAGCTGATGAATTACACTGCTCGAGTAAACAAATTTTCCTAATCTTTCTGTTCAAGCGCCATCTAC | 1.02 RPM ratio (pull-down/input) |
| GATGATTGTTCTCCCAGCTGATGAATTATCATTGTCGAGTAAACAAATTTTCCTAATCTTTCTGTTCAAGCGCCATCTAC | 1.21 RPM ratio (pull-down/input) |
| GATGATTGTTCTCCCAGCTGATGAATTGGATACTTCGAGTAAACAAATTTTCCTAATCTTTCTGTTCAAGCGCCATCTAC | 1 RPM ratio (pull-down/input) |
| GATGATTGTTCTCCCAGCTGATGAATTTCATACTTCGAGTAAACAAATTTTCCTAATCTTTCTGTTCAAGCGCCATCTAC | 0.905 RPM ratio (pull-down/input) |
| GATGATTGTTCTCCCAGCTGATGAATTCCTCGGCTCGAGTAAACAAATTTTCCTAATCTTTCTGTTCAAGCGCCATCTAC | 0.788 RPM ratio (pull-down/input) |
| GATGATTGTTCTCCCAGCTGATGAATTAATATGATCGAGTAAACAAATTTTCCTAATCTTTCTGTTCAAGCGCCATCTAC | 1.01 RPM ratio (pull-down/input) |
| GATGATTGTTCTCCCAGCTGATGAATTTTCGCGTTCGAGTAAACAAATTTTCCTAATCTTTCTGTTCAAGCGCCATCTAC | 1 RPM ratio (pull-down/input) |
| GATGATTGTTCTCCCAGCTGATGAATTCGCGCATTCGAGTAAACAAATTTTCCTAATCTTTCTGTTCAAGCGCCATCTAC | 1.26 RPM ratio (pull-down/input) |
| GATGATTGTTCTCCCAGCTGATGAATTATGTCTGTCGAGTAAACAAATTTTCCTAATCTTTCTGTTCAAGCGCCATCTAC | 0.913 RPM ratio (pull-down/input) |
| GATGATTGTTCTCCCAGCTGATGAATTTTCCGCTTCGAGTAAACAAATTTTCCTAATCTTTCTGTTCAAGCGCCATCTAC | 0.865 RPM ratio (pull-down/input) |

| Sequence | binding signal |
| --- | --- |
| GATGATTGTTCTCCCAGCTGATGAATTTTGGGTGTCGAGTAAACAAATTTTCCTAATCTTTCTGTTCAAGCGCCATCTAC | 0.855 RPM ratio (pull-down/input) |
| GATGATTGTTCTCCCAGCTGATGAATTTAAGGACTCGAGTAAACAAATTTTCCTAATCTTTCTGTTCAAGCGCCATCTAC | 0.845 RPM ratio (pull-down/input) |
| GATGATTGTTCTCCCAGCTGATGAATTCAAGTGTTCGAGTAAACAAATTTTCCTAATCTTTCTGTTCAAGCGCCATCTAC | 0.981 RPM ratio (pull-down/input) |
| GATGATTGTTCTCCCAGCTGATGAATTCTAAGAATCGAGTAAACAAATTTTCCTAATCTTTCTGTTCAAGCGCCATCTAC | 0.937 RPM ratio (pull-down/input) |
| GATGATTGTTCTCCCAGCTGATGAATTTTATTGGTCGAGTAAACAAATTTTCCTAATCTTTCTGTTCAAGCGCCATCTAC | 1.74 RPM ratio (pull-down/input) |
| GATGATTGTTCTCCCAGCTGATGAATTTGTTCTGTCGAGTAAACAAATTTTCCTAATCTTTCTGTTCAAGCGCCATCTAC | 1.07 RPM ratio (pull-down/input) |
| GATGATTGTTCTCCCAGCTGATGAATTCCGCCGATCGAGTAAACAAATTTTCCTAATCTTTCTGTTCAAGCGCCATCTAC | 0.721 RPM ratio (pull-down/input) |
| GATGATTGTTCTCCCAGCTGATGAATTCCTTATTTCGAGTAAACAAATTTTCCTAATCTTTCTGTTCAAGCGCCATCTAC | 0.97 RPM ratio (pull-down/input) |
| GATGATTGTTCTCCCAGCTGATGAATTGAAGTGCTCGAGTAAACAAATTTTCCTAATCTTTCTGTTCAAGCGCCATCTAC | 0.83 RPM ratio (pull-down/input) |
| GATGATTGTTCTCCCAGCTGATGAATTAGCCTTGTCGAGTAAACAAATTTTCCTAATCTTTCTGTTCAAGCGCCATCTAC | 0.856 RPM ratio (pull-down/input) |
| GATGATTGTTCTCCCAGCTGATGAATTTGAAAGCTCGAGTAAACAAATTTTCCTAATCTTTCTGTTCAAGCGCCATCTAC | 0.908 RPM ratio (pull-down/input) |
| GATGATTGTTCTCCCAGCTGATGAATTCCGGGTATCGAGTAAACAAATTTTCCTAATCTTTCTGTTCAAGCGCCATCTAC | 0.867 RPM ratio (pull-down/input) |
| GATGATTGTTCTCCCAGCTGATGAATTAAAGCTTTCGAGTAAACAAATTTTCCTAATCTTTCTGTTCAAGCGCCATCTAC | 1.03 RPM ratio (pull-down/input) |
| GATGATTGTTCTCCCAGCTGATGAATTAACATCATCGAGTAAACAAATTTTCCTAATCTTTCTGTTCAAGCGCCATCTAC | 1.31 RPM ratio (pull-down/input) |
| GATGATTGTTCTCCCAGCTGATGAATTCGTAAGATCGAGTAAACAAATTTTCCTAATCTTTCTGTTCAAGCGCCATCTAC | 0.903 RPM ratio (pull-down/input) |
| GATGATTGTTCTCCCAGCTGATGAATTTGAGCCGTCGAGTAAACAAATTTTCCTAATCTTTCTGTTCAAGCGCCATCTAC | 0.822 RPM ratio (pull-down/input) |
| GATGATTGTTCTCCCAGCTGATGAATTAACTCAATCGAGTAAACAAATTTTCCTAATCTTTCTGTTCAAGCGCCATCTAC | 0.866 RPM ratio (pull-down/input) |
| GATGATTGTTCTCCCAGCTGATGAATTACGTTGTTCGAGTAAACAAATTTTCCTAATCTTTCTGTTCAAGCGCCATCTAC | 1.21 RPM ratio (pull-down/input) |
| GATGATTGTTCTCCCAGCTGATGAATTCCCGAATTCGAGTAAACAAATTTTCCTAATCTTTCTGTTCAAGCGCCATCTAC | 0.868 RPM ratio (pull-down/input) |
| GATGATTGTTCTCCCAGCTGATGAATTACATGGTTCGAGTAAACAAATTTTCCTAATCTTTCTGTTCAAGCGCCATCTAC | 1.12 RPM ratio (pull-down/input) |
